# Assay results taken from the supplement of paper PMC10320760.
# Single values of this set are uncertain.
# B1: Ydj1; a variant is named by its letters at X, in order (parent)
# chain: MVKETKFYDILGVPVTATDVEIKKAYRKCALKYHPDKNPSEEAAEKFKEASAAYEILSDPEKRDIYDQFGEDGLSGAGGAGGFPGGGFGFGDDIFSQFFGAGGAQRPRGPQRGKDIKHEISASLEELYKGRTAKLALNKQILCKECEGRGGKKGAVKKCTSCNGQGIKFVTRQMGPMIQRFQTECDVCHGTGDIIDPKDRCKSCNGKKVENERKILEVHVEPGMKDGQRIVFKGEADQAPDVIPGDVVFIVSERPHKSFKRDGDDLVYEAEIDLLTAIAGGEFALEHVSGDWLKVGIVPGEVIAPGMRKVIEGKGMPIPKYGGYGNLIIKFTIKFPENHFTSEENLKKLEEILPPRIVPAIPKKATVDECVLADFDPAKYNRTRASRGGANYDSDEEEQGGEGVQCXXX
# Variants of: B1
# Experiment: enrichment factor, frequency at 37 °C / frequency at 25 °C (thermotolerance selection) (ratio); higher = more growth at 37 °C, higher likelihood of farnesylation
# Settings: with Saccharomyces cerevisiae ydj1Δ (yWS304); selective temperature 37 °C; reference temperature 25 °C
# Experimental: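 Pooled library of all 8,000 Ydj1-CXXX C-terminal motif variants (native CASQ replaced by C + three variable residues, one codon per amino acid) expressed from a CEN plasmid in S. cerevisiae ydj1Δ (yWS304). The library was grown in SC-Ura liquid to A600 ~2 (~8 generations) at permissive 25 °C or selective 37 °C. Reads from 8 and 7 replicates were pooled and variants counted by NGS. Enrichment factor = frequency at 37 °C / frequency at 25 °C, with a +1 correction; it reports Ydj1-dependent thermotolerance, used as a read-out of farnesylation by yeast FTase.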
row,Variant,enrichment factor
1,YIR,0.314
2,YIW,1.16
3,YIM,2.7
4,YIG,1.39
5,YIL,1.51
6,YII,0.463
7,YIE,2.04
8,YIF,3.47
9,YIQ,1.78
10,YIH,2.32
11,YIP,3.26
12,YIV,4.63
13,YIN,5.41
14,YID,2.25
15,YIS,1.06
16,YIK,2.54
17,YIT,3.09
18,WIR,0.4
19,WIE,2.65
20,WIL,1.74
21,WIV,2.32
22,WID,2.17
23,WIF,1.93
24,WIS,1.74

row,Variant,enrichment factor
1,WIT,1.45
2,WIG,0.772
3,WIQ,1.82
4,WIW,0.695
5,WIN,3.86
6,WIH,2.32
7,WIK,1.47
8,WIP,1.99
9,WII,1.54
10,WIM,2.32
11,NIR,1.43
12,NIT,1.1
13,NIP,0.217
14,NIL,1.08
15,NIQ,3.29
16,NIG,3.6
17,NIS,1.31
18,NIV,0.99
19,NIW,1.74
20,NIF,1.88
21,NIN,2.73
22,NID,1.95
23,NIK,2.13
24,NII,1.09

row,Variant,enrichment factor
1,NIM,1.12
2,NIE,2.81
3,NIH,3.47
4,VIN,0.802
5,VIR,1.81
6,VIS,0.869
7,VID,1.18
8,VIF,0.945
9,VIW,1.09
10,VIK,1.58
11,VIP,0.155
12,VIM,1.05
13,VIL,0.884
14,VIH,1.16
15,VIG,0.579
16,VIT,0.852
17,VIE,1.76
18,VIV,1.02
19,VIQ,0.855
20,VII,0.64
21,LIV,0.975
22,LIW,0.61
23,LIN,5.13
24,LII,1.25

row,Variant,enrichment factor
1,LIE,1.61
2,LIS,1.63
3,LIM,1.2
4,LIF,2.32
5,LIL,0.764
6,LIP,0.182
7,LIH,2.12
8,LIQ,2.81
9,LID,1.57
10,LIK,1.85
11,LIG,1.49
12,LIR,1.22
13,LIT,2.03
14,FIM,2.19
15,FIK,2.32
16,FIG,2.32
17,FIT,0.901
18,FIW,1.3
19,FIP,7.72
20,FIE,1.7
21,FIN,0.671
22,FIR,0.47
23,FIH,2.9
24,FIQ,1.88

row,Variant,enrichment factor
1,FIS,1.74
2,FIF,2.32
3,FII,0.463
4,FIV,0.695
5,FIL,1.74
6,DIL,1.18
7,DII,1.41
8,DIM,1.08
9,DIE,1.72
10,DIF,1.08
11,DIH,2.62
12,DIP,0.193
13,DID,1.29
14,DIV,1.58
15,DIG,1.42
16,DIN,2.3
17,DIR,0.332
18,DIT,2.41
19,DIK,1.55
20,DIS,1.71
21,DIQ,2.98
22,QIR,1.61
23,QII,1.24
24,QIL,1.03

row,Variant,enrichment factor
1,QIP,0.156
2,QIW,1.87
3,QIG,3.65
4,QIQ,3.56
5,QIM,1.2
6,QIF,2.61
7,QIE,2.3
8,QIH,2.56
9,QIN,2.9
10,QIV,1.71
11,QIK,3.38
12,QIS,1.63
13,QIT,2.75
14,QID,2.41
15,CIG,0.796
16,CIV,0.898
17,CIT,0.837
18,CIS,0.958
19,CIE,1.53
20,CIF,0.806
21,CIR,1.05
22,CIP,1.23
23,CIM,1.03
24,CIN,1.08

row,Variant,enrichment factor
1,CIH,0.597
2,CIL,1.31
3,CIQ,0.836
4,CIW,0.995
5,CII,1.1
6,CIK,3.12
7,CID,1.96
8,PID,1.98
9,PIN,1.54
10,PIF,0.742
11,PIQ,1.05
12,PIW,0.539
13,PIR,1.19
14,PIK,1.23
15,PIG,1.21
16,PIH,1.69
17,PIS,1.6
18,PIV,0.722
19,PIE,1.89
20,PIM,0.924
21,PII,0.833
22,PIL,0.824
23,PIT,1.49
24,PIP,0.139

row,Variant,enrichment factor
1,IIR,1.88
2,IIW,0.579
3,IID,1.35
4,IIV,1.25
5,IIH,1.16
6,IIT,0.93
7,IIQ,1.33
8,IIN,2.24
9,IIS,0.834
10,IIL,0.78
11,III,0.956
12,IIF,1.07
13,IIE,0.993
14,IIG,1.69
15,IIK,3.94
16,IIP,0.15
17,IIM,1.21
18,EIR,1.34
19,EIV,1.98
20,EII,1.26
21,EIT,2.98
22,EIH,1.43
23,EIL,2.9
24,EIW,1.24

row,Variant,enrichment factor
1,EIG,2.32
2,EIQ,2.44
3,EIK,1.92
4,EIE,1.56
5,EIF,2.32
6,EIP,0.154
7,EIS,2.55
8,EIN,2.37
9,EIM,1.8
10,SIM,0.559
11,SIN,1.94
12,SIR,1.6
13,SII,0.931
14,SIQ,1.06
15,SIP,0.261
16,SIW,1.32
17,SIV,1.26
18,SIE,2.11
19,SIF,0.862
20,SIS,1.33
21,SIL,0.524
22,SID,1.95
23,SIK,3.58
24,SIT,1.48

row,Variant,enrichment factor
1,SIG,0.772
2,SIH,2.2
3,RIF,0.745
4,RIE,1.9
5,RIP,0.122
6,RIK,1.47
7,RIT,0.646
8,RIW,0.689
9,RIR,0.946
10,RIQ,1.48
11,RIL,0.667
12,RII,0.811
13,RID,2.08
14,RIV,1.1
15,RIG,0.975
16,RIS,0.993
17,RIH,1.54
18,RIM,0.625
19,RIN,1.74
20,GIK,2
21,GIL,1.62
22,GIG,2.71
23,GIP,0.16
24,GIF,0.772

row,Variant,enrichment factor
1,GIN,1.79
2,GIQ,1.26
3,GIM,1.19
4,GIH,1.98
5,GIE,1.75
6,GIW,0.965
7,GIV,1.18
8,GII,0.834
9,GIS,1.8
10,GIR,0.366
11,GIT,2.09
12,TIQ,0.847
13,TIN,1.13
14,TIK,1.31
15,TIL,0.806
16,TIT,0.729
17,TIR,2.49
18,TIW,1.16
19,TIG,0.869
20,TIM,0.632
21,TID,3.26
22,TIF,1.08
23,TII,0.734
24,TIS,0.732

row,Variant,enrichment factor
1,TIE,2.58
2,TIV,0.699
3,TIP,0.134
4,TIH,3.01
5,AIS,0.736
6,AIP,0.153
7,AIG,0.618
8,AIQ,1.83
9,AIE,2.37
10,AIM,0.822
11,AIH,3.88
12,AIR,1.73
13,AIV,0.641
14,AIK,2.45
15,AIW,1.93
16,AIT,1.05
17,AII,0.709
18,AIF,1.29
19,AIL,0.621
20,AIN,3.86
21,HIF,1.27
22,HIG,0.869
23,HIS,1.13
24,HIT,2.43

row,Variant,enrichment factor
1,HIQ,3.02
2,HIR,1.18
3,HII,1.34
4,HIH,1.38
5,HIW,2.08
6,HIP,1.81
7,HIE,3.94
8,HIV,1.37
9,HIK,3.36
10,HIM,0.97
11,HIN,5.21
12,HIL,1.13
13,KIW,0.579
14,KIR,0.515
15,KIF,0.891
16,KID,1.65
17,KIE,2.32
18,KII,0.588
19,KIN,1.74
20,KIK,2.11
21,KIH,1.32
22,KIP,0.211
23,KIQ,2.81
24,KIV,1.24

row,Variant,enrichment factor
1,KIT,1.82
2,KIM,1.87
3,KIL,1.54
4,KIG,1.45
5,KIS,2.82
6,MIN,1.74
7,MIM,0.907
8,MIQ,1.53
9,MII,0.743
10,MIP,0.214
11,MIR,1.31
12,MIE,0.902
13,MIK,2.13
14,MIS,1.96
15,MIV,1.33
16,MID,1.35
17,MIW,1.85
18,MIT,1.18
19,MIH,0.695
20,MIL,0.858
21,MIG,0.386
22,MIF,1.16
